# About 930 (0.24%) of roughly 390,000 compounds were called active. Inconclusive results, whose numbers are uncertain, are shown with a selection of clear calls. Calls follow the shape of the dose curve; as a rule, active = well fitted activation curve with a large enough effect; inconclusive = small, poorly fitted or top-dose-only effect; inactive = no such curve, though single readings can be large or run the other way. Potencies of inconclusive entries are doubtful fits and often do not repeat.
# Assay: qHTS for Suppressors of FUS Proteinopathy: Primary screen using FUS-linked yeast assay; also: nearly all actives have a fitted effect of over 55% in size;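 as to growth rescue (activation): plate controls were DMSO vehicle for no effect and reference control for full effect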
# Conditions: S. cerevisiae FUS-expressing, OD600, 24 h; Potency: growth rescue; growth rescue (activation): at 76.6 µM (top of the series)
# Outline: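 Cultures pregrown in 2.5% raffinose medium are shifted to minimal medium containing 2% galactose to express toxic FUS. Compounds are tested at several concentrations. After 24hr at 30C, growth is quantified at 600 nm absorbance.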
# Potency is read from the fitted curve at half-maximal effect; tags tell the direction and shape of the fitted curve.
SMILES,growth rescue (activation),Potency
CCCCCCCCN1CN2Cc3ccccc3C2CS1(=O)=O (stereo not given),inactive: 15.1%,–
CC1=Nc2ccccc2/C1=C/c1sc(=S)n(-c2cccc(C(=O)O)c2)c1O,inconclusive: -74.3% [activator],–
CCC(Sc1nc2ccccc2c(=O)n1CCc1ccc(OC)c(OC)c1)C(=O)N(CC)CC (stereo not given),–,"inconclusive: 28.2 µM [activator, single point]"
CCc1cccc(C)c1NC(=S)NCc1ccc2c(c1)cc(C)n2C,–,"inconclusive: 44.7 µM [activator, single point]"
Cc1c(Br)c(C(F)(F)F)nn1CC(=O)NCc1ccco1,inactive: 9.51%,–
CC(C)c1ccc(C2OC(CCc3ccccc3)Cc3[nH]c(=S)[nH]c(=O)c32)cc1 (stereo not given),–,"inconclusive: 50.1 µM [activator, single point]"
O=CNc1cc(-c2ccccc2Oc2ccccc2)cn2c(-c3ccc(F)cc3)cnc12,–,"inconclusive: 28.2 µM [activator, single point]"
C[C@@H]1CN([C@@H](C)CO)C(=O)c2cccc(NS(=O)(=O)c3ccc(F)cc3)c2O[C@H]1CN(C)C(=O)NC1CCCCC1,–,"inconclusive: 12.6 µM [activator, partial curve]"
O=C(Nc1ccc2c(c1)CCCN2C(=O)c1cccs1)c1ccccc1Cl,–,"inconclusive: 39.8 µM [activator, single point]"
CN(CCc1ccccc1)C(=O)c1cccc(NC(=O)Cc2cccc(NC(=O)C3CCCN(S(=O)(=O)c4cccc([N+](=O)[O-])c4)C3)c2)c1 (stereo not given),–,"inconclusive: 20 µM [activator, single point]"
CCSc1nc(-c2ccco2)ccc1C#N,–,"inconclusive: 35.5 µM [activator, partial curve, poor fit]"
O=C(Cn1c(=O)nc(-c2ccccc2)c2cc(Cl)ccc21)N1CCN(c2ccc(F)cc2)CC1,inactive: 1.83%,–
O=C(COC(=O)CCS(=O)(=O)c1ccc(F)cc1)NC1CCCCC1,inactive: -7%,–
Cc1cc(C(=O)COC(=O)C2=NNC(=O)CC2)c(C)n1-c1ccc(OC(F)F)cc1,–,"inconclusive: 39.8 µM [activator, partial curve, poor fit]"
CC(/C=N/n1c(-c2ccco2)n[nH]c1=S)=C\c1ccccc1,inactive: -2.11%,–
CCOc1cc2[nH]c(=O)n(Cc3ccc(C(=O)N4CCN(c5cccc(Cl)c5)CC4)cc3)c(=O)c2cc1OCC,inactive: -0.319%,–
Cn1nc(C(=O)Nc2ccc(F)c(Cl)c2)c2c1-c1ccccc1S(=O)(=O)C2,inactive: 6.89%,–
Cc1cccc(-c2nnc(C3CCN(S(=O)(=O)c4cccc(Cl)c4)CC3)o2)c1,–,"inconclusive: 44.7 µM [activator, partial curve, poor fit]"
CCCc1cc(-c2n[nH]c(=S)n2C(C)c2ccccc2)cs1 (stereo not given),–,"inconclusive: 28.2 µM [activator, partial curve]"
O=C(O)c1ccccc1C(c1ccc(O)cc1)c1ccc(O)cc1,inactive: -29.6%,–

SMILES,growth rescue (activation),Potency
CC(=O)Oc1ccc(-c2csc(Nc3cccc(C)n3)n2)cc1,inactive: 17.8%,–
Cc1ccc(Cl)cc1N1CCN(C(=O)c2ccc(CS(=O)(=O)c3ccccc3C)o2)CC1,–,"inconclusive: 39.8 µM [activator, partial curve, poor fit]"
COc1ccc2c(-c3ccc(OCCN4CCOCC4)cc3)c(-c3ccccc3OC)sc2c1,–,"inconclusive: 25.1 µM [activator, single point]"
COc1cc(C[C@@H](C)[C@@H](C)Cc2ccc(O)c(OC)c2)ccc1O,–,"inconclusive: 31.6 µM [activator, partial curve, poor fit]"
O=[N+]([O-])c1ccc(Nc2nc(N/N=C\c3ccc4c(c3)OCO4)nc(N3CCCCC3)n2)cc1,–,"inconclusive: 8.91 µM [activator, partial curve, poor fit]"
COc1ccc(OC)c(NC(=O)CN(c2ccc(C(C)C)cc2)S(=O)(=O)c2c(C)noc2C)c1,–,"inconclusive: 28.2 µM [activator, partial curve]"
COC(=O)[C@]12CCCCC=C1N(Cc1ccc(Cl)cc1Cl)C(=O)[C@H](CC(=O)NCCc1ccccc1OC)C2,–,"inconclusive: 25.1 µM [activator, single point]"
CCN1C(=O)c2ccccc2S(=O)c2ccc(C(=O)N3CCN(c4cc(Cl)ccc4C)CC3)cc21 (stereo not given),–,"inconclusive: 20 µM [activator, partial curve, poor fit]"
COC(=O)[C@]12CCCCC=C1N(Cc1ccccc1)C(=O)[C@H](CC(=O)NCC1CCCCC1)C2,–,"inconclusive: 14.1 µM [activator, partial curve]"
CN(Cc1ccccc1)C(=O)c1ccc2c(c1)N(Cc1ccccc1Cl)C(=O)c1ccccc1S2,–,"inconclusive: 31.6 µM [activator, single point]"
CN(C)S(=O)(=O)c1cccc(-c2nn(-c3ccccc3)cc2/C=C(/C#N)C(=O)NCc2ccco2)c1,inconclusive: -61.6% [activator],–
O=C(CCn1c(=O)c2cccn2c2cccnc21)NCc1ccc(F)cc1,inactive: -7.47%,–
COc1ccc(-c2c3c(=O)n(C)c(=O)n(C)c3c3n2-c2ccccc2NC3c2ccco2)cc1 (stereo not given),inactive: 23%,–
O=C(NC(=S)Nc1ccc(S(=O)(=O)N2CCCCC2)cc1)c1ccccc1,inactive: -7.48%,–
COc1cccc(Nc2nc(-c3sc(N)nc3C)cs2)c1,–,"inconclusive: 22.4 µM [activator, partial curve, poor fit]"
COc1cc(C(=O)O[C@H]2C/C(C)=C/CC[C@@]3(C)O[C@@H]3[C@H](O)[C@@H]2C(C)C)cc(OC)c1OC,–,"inconclusive: 5.01 µM [activator, full curve, poor fit]"
COc1c(C)cc(C(O)c2ncc(-c3ccccc3F)[nH]2)cc1C (stereo not given),inactive: -12.8%,–
CCOc1ccccc1OCCCn1c(-c2ccc(Cl)cc2)nc2ccccc2c1=O,–,"inconclusive: 5.62 µM [activator, single point]"
COCCCNC(=S)N/N=C/c1ccc(OC)c(Br)c1,–,"inconclusive: 2.24 µM [activator, partial curve, poor fit]"
COc1ccc(OC)c(-n2c(=S)[nH]c3cc(C(=O)N4CCN(c5ccccc5)CC4)ccc3c2=O)c1,–,"inconclusive: 25.1 µM [activator, partial curve, poor fit]"
